SMILES strings stand for the structures. ≈ marks a conversion by molar mass, not a printed value.

For the series the following is noted: buffer; pH 7.4; 200.0 µM.
The term kinetic solubility denotes solubility judged after dilution from a stock solution rather than from solid. The compound `O=C(Nc1cccc(F)c1)c1ccc2c(c1)OCCO2` displayed a solubility (kinetic) of 14 µg/mL (≈ 51.2 µM).
In turn, `C/C(=N/OC(=O)c1ccccc1)c1oc(C)nc1C` registered a kinetic solubility of 28.2 µg/mL (≈ 109 µM).
`COCCNC(=O)[C@H]1N2C(=O)c3ccccc3C2SC1(C)C` (stereo partly drawn): the solubility (kinetic) is more than 48.1 µg/mL.
Turning to `Cc1ccc(S(=O)(=O)N2CCN(c3ncnc4ccccc34)CC2)cc1`, the kinetic solubility was 0.8 µg/mL (≈ 2.17 µM).
With `Cc1cccc(NC(=O)COC(=O)C2C3CC4OC(=O)C2C4C3)c1C` (stereo not drawn), the solubility (kinetic) was more than 51.5 µg/mL.
The compound `CCCC(C)NC(=O)c1cccc(Oc2ccccc2)c1` (stereo not drawn) came in with a solubility (kinetic) of 12.5 µg/mL (≈ 44.1 µM).
In turn, `CN1C(=O)/C(=C/C=C/c2ccco2)C(=O)NC1=S` gave a solubility (kinetic) of 21.1 µg/mL (≈ 80.4 µM). This solubility kinetic lies about 1.7-fold higher than the previous one.
Consider `OCc1cnc(SCc2ccccc2)n1Cc1ccccc1`, for which the solubility (kinetic) was 46.3 µg/mL (≈ 149 µM).
